The full ranking holds about 110,000 compounds; the median of “z-score” is about -0.1, and the highest 2% start at about 2. The list shows a part of the results. Calls of active or inactive are those of the source.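 The calls were made as follows: active = z-score in the third read window above 3 or below -3; inactive = the rest.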
What follows are molecules tested against Metabotropic glutamate receptor 8 (Rattus norvegicus) (UniProt P70579) (assay: rat mGluR8 modulators via GIRK flux, primary screen, cell-based, thallium flux, HTS (AID 488969)). Details: HEK293 rat mGluR8, GIRK (G protein-gated inwardly rectifying potassium channel) thallium flux, FluoZin2; at 10 µM; stronger effect = higher value; submaximal glutamate (EC20) added with thallium.
UniProt P70579, sequence (P70579 whole entry, looked up): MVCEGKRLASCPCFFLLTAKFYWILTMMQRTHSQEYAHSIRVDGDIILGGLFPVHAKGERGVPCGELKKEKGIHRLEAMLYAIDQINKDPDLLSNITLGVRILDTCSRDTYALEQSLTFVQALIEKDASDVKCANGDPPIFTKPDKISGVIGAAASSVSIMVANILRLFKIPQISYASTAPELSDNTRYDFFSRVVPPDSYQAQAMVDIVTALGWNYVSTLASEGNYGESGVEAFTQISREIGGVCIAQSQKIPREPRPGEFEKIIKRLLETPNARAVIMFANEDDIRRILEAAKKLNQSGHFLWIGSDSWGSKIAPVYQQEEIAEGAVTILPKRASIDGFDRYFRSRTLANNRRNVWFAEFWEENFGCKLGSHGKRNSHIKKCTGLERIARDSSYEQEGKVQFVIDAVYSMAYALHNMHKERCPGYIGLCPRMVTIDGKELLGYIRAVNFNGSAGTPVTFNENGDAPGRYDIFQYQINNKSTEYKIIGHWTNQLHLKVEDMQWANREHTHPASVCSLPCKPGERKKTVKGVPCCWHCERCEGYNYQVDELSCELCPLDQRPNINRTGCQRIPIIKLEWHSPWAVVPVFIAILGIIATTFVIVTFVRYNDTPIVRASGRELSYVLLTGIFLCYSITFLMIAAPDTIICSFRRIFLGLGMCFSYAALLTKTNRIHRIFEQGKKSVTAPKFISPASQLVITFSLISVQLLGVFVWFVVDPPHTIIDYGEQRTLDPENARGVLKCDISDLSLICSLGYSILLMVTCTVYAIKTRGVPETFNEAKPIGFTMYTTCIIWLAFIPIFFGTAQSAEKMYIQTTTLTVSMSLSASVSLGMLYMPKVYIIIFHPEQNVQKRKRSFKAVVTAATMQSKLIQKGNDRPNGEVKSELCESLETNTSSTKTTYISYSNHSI

| Compound | z-score |
| --- | --- |
| CC(=O)c1ccc(NC(=S)N2CC(C)CC(C)C2)cc1 (stereo unspecified) | -0.208 |
| COC(=O)C1=C(O)CSC1=Nc1cccc(C(F)(F)F)c1 | -0.199 |
| CC(C)C(CCNC(=O)CC(Cc1ccccc1)c1ccco1)c1ccco1 (stereo unspecified) | -0.262 |
| CCCCN(C(=O)NC(=O)Nc1ccccc1OC)S(C)(=O)=O | -0.271 |
| CCSc1nc2ccccc2n1Cc1nc(N)nc(N(C)C)n1 | -0.509 |
| O=C(Nc1ccccc1)Nc1nnc(Cc2ccc([N+](=O)[O-])cc2)s1 | -0.142 |
| CCC(=O)Nc1ccc(S(=O)(=O)NCc2ccco2)cc1 | -1.8 |
| Cc1nc(SCC(=O)NC(C)c2ccccc2)c2oc3ccccc3c2n1 (stereo unspecified) | -0.958 |
| Cc1cc(NC(=O)Cc2cccs2)no1 | -0.123 |
| O=C(NCc1ccc(F)cc1)c1cc2c(s1)CCCC2 | -0.144 |
| O=S(=O)(NCC(c1cccnc1)N1CCN(c2ccc(F)cc2)CC1)c1ccccc1 (stereo unspecified) | -0.412 |
| COC(=O)c1nnn(-c2nonc2N)c1CN1CCc2ccccc21 | -0.678 |
| CCn1c(SCC(N)=O)nnc1-c1ccc2[nH]c(C)c(C)c2c1 | -0.675 |
| O=C(NCc1ccco1)c1cc(-c2cccs2)on1 | -0.182 |
| Cc1ccc(S(=O)(=O)N2CCN(C(=O)CN3CCOCC3)C2C(C)C)cc1 (stereo unspecified) | -0.331 |
| Cc1nnc(SCC(=O)Nc2ccc(-c3nc4ccccc4s3)cc2)s1 | -0.0598 |
| COc1ccc(/C=C/C(=O)NC(=S)NNC(=O)Cc2cccs2)cc1OC | -0.448 |
| CCOC(=O)N1CCN(CC(O)COCCC23CC4CC(CC(C4)C2)C3)CC1 (stereo unspecified) | 1.96 |
| Cc1ccc(S(=O)(=O)c2c(N)n(Cc3ccco3)c3nc4ccccc4nc23)cc1 | -1.78 |
| COc1ccc(C(=O)CSc2nnc(-c3ccco3)n2CC2CCCO2)cc1 (stereo unspecified) | -0.159 |
| Cn1ncc2c(=O)n(/N=C/c3ccccc3)cnc21 | -0.0987 |
| O=C(O)CCN1C(=O)CC2(CCCCC2)C1=O | 0.371 |
| CCOc1cc(/C=N/NC(=O)CNc2cccc(C)c2)ccc1OC(=O)c1ccccc1 | active: 5.52 |
| O=C(O)C(NC(=O)c1ccccc1)=C(Cl)Cl | 0.118 |

| Compound | z-score |
| --- | --- |
| CCOc1ccc2c(c1)C(C)=CC(C)(C)N2C(=O)Nc1ccccc1 | -0.23 |
| Cn1c(SCc2c(Cl)cccc2Cl)nc(C(F)(F)F)cc1=O | 0.025 |
| COc1ccc(NC(=O)COC(=O)CNC(=O)c2cc(OC)c(OC)c(OC)c2)cc1 | -0.308 |
| CC(=O)c1cccc(NC(=O)C(OC(=O)/C=C/c2ccc3c(c2)OCO3)c2ccccc2)c1 (stereo unspecified) | -0.164 |
| O=C(Nc1ccccc1C(=O)OCc1nnc(-c2ccccc2)o1)c1ccco1 | -0.0394 |
| CCOc1cc(/C=C/c2ccc3cccc([N+](=O)[O-])c3n2)cc(Cl)c1O | 0.601 |
| CCC(C)[C@H](NC(=O)NCc1ccccn1)C(=O)OC (stereo partly specified) | 0.224 |
| COc1ccc(CNC(=O)CSc2ncn[nH]2)cc1 | -0.172 |
| Cc1nc2ccccc2c(=O)n1/N=C/c1ccccc1 | -0.0985 |
| CC1CCN(C(=O)COC(=O)c2cc3ccccc3cc2O)CC1 | -0.0905 |
| CCC(=O)Nc1cc(=O)[nH]c2ncnn12 | 0.0854 |
| Cc1cc(C)c2nc(-c3ccccn3)cc(C(=O)Nc3cc(C)on3)c2c1 | 0.126 |
| Cc1ccc2nc(C(=O)O)c(C(=O)O)nc2c1 | -0.0144 |
| CCOC(=O)C(Cc1ccc(NC(=O)/C(=C\c2ccccc2)NC(=O)c2ccccc2)cc1)N1C(=O)c2ccccc2C1=O (stereo unspecified) | -0.246 |
| COc1ccc(S(=O)(=O)N(CC(=O)NCc2ccco2)c2ccccc2)cc1OC | 0.527 |
| Cc1cccc(C)c1NC(=O)CN1C(=O)S/C(=C\c2cccn2C)C1=O | -0.0785 |
| CCCNC(=O)CSc1nnc(-c2ccco2)n1C | -0.316 |
| O=C(N/N=C/c1cc([N+](=O)[O-])ccc1Cl)c1ccc2nc[nH]c2c1 | -0.208 |
| CC(=O)c1cccc(N(CC(=O)N2CCCCC2)S(C)(=O)=O)c1 | 0.014 |
| Cc1cccc2cc(C(c3nnnn3Cc3ccccc3)N3CCN(c4ccccc4)CC3)c(=O)[nH]c12 (stereo unspecified) | -0.277 |
| COCCCNC(=O)CC(NS(=O)(=O)c1ccc(Cl)cc1)c1ccc(OC)cc1 (stereo unspecified) | -0.0343 |
| CCCCCCC(=O)NC(Nc1ccc(S(N)(=O)=O)cc1)C(Cl)(Cl)Cl (stereo unspecified) | -0.259 |
| COCCNC(=O)C(C)OC(=O)c1nsc(Cl)c1Cl (stereo unspecified) | -0.143 |
| COC(=O)C1CCN(CC(=O)Nc2sc3c(c2C#N)CCC3)CC1 | -0.0794 |

| Compound | z-score |
| --- | --- |
| CC(=O)N1CCN(C(=S)c2cccc([N+](=O)[O-])c2)CC1 | -0.106 |
| CC1(C)C(=O)Nc2ccccc2N1C(=O)COC(=O)CCSc1ccccc1 | 0.0918 |
| CCOc1ccc(/C=N/NC(=O)Cc2csc(Nc3cccc(C(F)(F)F)c3)n2)c(OCC)c1 | -0.169 |
| COc1ccc(OC)c(-c2cc(C(=O)Nc3cc(C)n(Cc4ccc(Cl)cc4)n3)no2)c1 | -0.962 |
| CC(Oc1ccc(F)cc1F)C(=O)/C=C/N(C)C (stereo unspecified) | -0.349 |
| Cc1cc(C)n(-c2nnc3n2N=C(c2c[nH]c4ccccc24)CS3)n1 | -2.14 |
| Cc1cccc(C)c1-n1c(C)cc(/C=N/NC(=O)CSc2ncccn2)c1C | -0.547 |
| CC(C)COc1cccc(C(=O)NC(=S)NCc2cccnc2)c1 | 0.559 |
| CCCOC(=O)C1[C@H]2C(=O)N(Cc3ccco3)C[C@]23C=C[C@H]1O3 (stereo partly specified) | 0.0986 |
| CC(C(=O)Nc1ccc2nccnc2c1)N1C(=O)C2C3C=CC(C3)C2C1=O (stereo unspecified) | -0.162 |
| COc1cccc(C(=O)COC(=O)C(C)N2C(=O)C3C4C=CC(C4)C3C2=O)c1 (stereo unspecified) | -0.0918 |
| COc1ccc(S(=O)(=O)N2CCC(C(=O)NCCC3=CCCCC3)CC2)cc1C | 0.18 |
| O=C(CSc1nc2ccc([N+](=O)[O-])cc2[nH]1)NC1CCCC1 | -0.462 |
| CN(C)Cc1c(O)ccc2occ(C(O)c3ccccc3)c12 (stereo unspecified) | 1.31 |
| C=CCN1C(=O)CN=C1Nc1cc(C)ccc1C | 0.367 |
| O=[N+]([O-])c1ccccc1OCCOCCOc1cccc2cccnc12 | 0.0205 |
| CCOc1ccc(Nc2nc3ccccc3n3nnnc23)cc1 | -0.183 |
| CC1CC(C(F)F)n2nc(C(=O)O)cc2N1 (stereo unspecified) | -0.126 |
| O=C(CCCOc1ccc(Cl)cc1)N1CCCCCC1 | -0.152 |
| CCCCNC(=O)Oc1cccc(N2CCCC2=O)c1 | -0.317 |
| CSc1nccc(-c2nn(-c3ccc(C)cc3)ccc2=O)n1 | -0.18 |
| COc1ccc(-c2csc(N3C(=O)CNC3=S)n2)cc1 | 0.492 |
| CCCN1C(=O)/C(=C/c2ccc(N3CCCC3)c(C)c2)NC1=S | active: 11 |

— PubChem BioAssay AID488969 (Vanderbilt High Throughput Screening Facility, 2010)
